Experimental data: PubChem BioAssay AID881 (National Center for Advancing Translational Sciences (NCATS), 2007)
Hit rate of the full screen: of about 110,000 compounds, about 610 (0.55%) were called active. Inconclusive results, whose numbers are uncertain, are shown with a selection of clear calls. The call rests on the fitted dose curve; in most records, active means well fitted inhibition curve with a large enough effect; inconclusive means small, poorly fitted or top-dose-only effect; inactive means no such curve, though single readings can be large or run the other way. Potencies beside an inconclusive call are fits to weak or partial responses and may not hold up.
Further: nearly all actives have a fitted effect of over 60% in size.
On the % scale 0 is the no-effect control and ±100 the full control effect; potency means the concentration at half of the fitted maximal effect; tags describe the fitted curve by direction and shape.

The compounds below were run against Polyunsaturated fatty acid lipoxygenase ALOX15B (Homo sapiens) (UniProt O15296) (assay: qHTS Assay for Inhibitors of 15-hLO-2 (15-human lipoxygenase 2)). Conditions: purified 15hLO-2, xylenol orange hydroperoxide absorbance; activity change, negative = inhibition: at 57.1 µM (top of the series) unless noted.
Chain of UniProt O15296 (O15296 whole entry, looked up): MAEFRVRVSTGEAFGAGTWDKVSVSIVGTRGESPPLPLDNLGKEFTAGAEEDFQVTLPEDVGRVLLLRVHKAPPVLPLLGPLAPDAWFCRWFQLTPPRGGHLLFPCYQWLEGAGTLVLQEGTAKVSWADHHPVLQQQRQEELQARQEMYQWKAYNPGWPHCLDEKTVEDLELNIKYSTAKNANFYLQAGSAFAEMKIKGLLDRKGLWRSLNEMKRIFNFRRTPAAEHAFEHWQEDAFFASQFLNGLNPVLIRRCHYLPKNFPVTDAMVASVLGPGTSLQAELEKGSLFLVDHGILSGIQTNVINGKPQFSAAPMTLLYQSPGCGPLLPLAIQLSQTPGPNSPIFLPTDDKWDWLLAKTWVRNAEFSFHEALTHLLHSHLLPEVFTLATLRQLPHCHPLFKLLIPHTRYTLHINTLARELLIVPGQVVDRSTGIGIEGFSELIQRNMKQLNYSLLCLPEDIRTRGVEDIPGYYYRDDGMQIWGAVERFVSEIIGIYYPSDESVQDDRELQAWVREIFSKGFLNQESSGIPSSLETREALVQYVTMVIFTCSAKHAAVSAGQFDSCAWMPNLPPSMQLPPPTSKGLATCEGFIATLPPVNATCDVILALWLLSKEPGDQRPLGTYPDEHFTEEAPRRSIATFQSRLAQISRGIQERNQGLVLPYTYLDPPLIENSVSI
In short: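 Read-out: hydroperoxide product oxidises ferrous iron, measured as xylenol orange complex via the 573-to-405 nm absorbance ratio after 30 min. Reaction: 50 nM enzyme, 15 min compound preincubation, 45 uM arachidonic acid, 90 min RT, Hepes pH 7.5 with Triton X-100.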
For Cc1onc(-c2ccccc2)c1C(=O)Nc1nnc(N2CCCCCC2)s1, the Potency was “inactive”.
COC(=O)c1ccc(CSc2nc3ccc(C)cc3[nH]2)o1 was tested, and the Potency was “inactive”.
With S=C(NCc1cccnc1)Nc1ccc(Cl)cc1 the Potency was “inactive”.
Cc1ccc(S(=O)(=O)c2c(C)nn(C(C)(C)C)c2OC(=O)c2cccs2)cc1 was tested, and the Potency was inconclusive: 0.251 µM [inhibitor, full curve, poor fit].
With CCC1CCCCN1c1ccc([N+](=O)[O-])cc1/C=N/NC(=O)Cn1c2ccccc2c(=O)c2ccccc21 (stereo not drawn) the Potency was inconclusive: 0.794 µM [inhibitor, full curve].
In the case of O=c1c2c3nc4ccccc4nc3n(-c3ccc4c(c3)OCCO4)c2ncn1CC1CCCO1 (stereo not drawn), the Potency was inconclusive: 25.1 µM [inhibitor, partial curve].
In the case of Cc1noc(C)c1-c1ccc2ncnc(N3CCC(C(=O)O)CC3)c2c1, the Potency was “inactive”.
Cc1ccc(N/N=C/c2ccc(N3CCOCC3)cc2)cc1C was tested, and the Potency was inconclusive: 3.98 µM [inhibitor, partial curve].
For CCOC(=O)c1cn(CC)c2ccc(S(=O)(=O)N3CC(C)CC(C)C3)cc2c1=O (stereo not drawn), the Potency was inconclusive: 20 µM [inhibitor, single point].
For Cc1noc(C)c1C(=O)N1CCN(CCc2ccccc2)CC1, the Potency was “inactive”.
With O=C(NCc1ccccc1)c1ccc(-c2ccccc2C(F)(F)F)o1 the activity change, negative = inhibition was inactive: -1.07% [at 0.0915 µM].
CC(C)(C)C(=O)NC(=S)NCCc1ccccc1 was tested, and the Potency was active: 12.6 µM.
For CCOC(=O)c1c2ccc(OCC(=O)N/N=C/c3ccc(Cl)cc3)cc2n2ccccc12, the Potency was inconclusive: 31.6 µM [inhibitor, single point].
For Cc1cccn2c(=O)c3cc(C(N)=S)c(=N)n(CCCOC(C)C)c3nc12, the Potency was inconclusive: 31.6 µM [inhibitor, single point].
With Cc1ccc(-c2noc(C3CCCN(S(=O)(=O)c4ccc5ccccc5c4)C3)n2)o1 (stereo not drawn) the Potency was inconclusive: 12.6 µM [inhibitor, partial curve].
For CC(C)=CC(=O)Nc1nnc(-c2ccccc2)s1, the Potency was “inactive”.
COC(=O)c1ccc(O)c(Sc2cc(C(=O)OC)ccc2O)c1 was tested, and the Potency was inconclusive: 20 µM [inhibitor, partial curve].
Cc1cc2nn(-c3cccc4ccccc34)nc2cc1N was tested, and the Potency was “inactive”.
CCc1cc(C=NC2CCCCC2)c(O)s1 was tested, and the Potency was “inactive”.
[O-]/[N+](=C\c1ccncc1)c1ccccc1 was tested, and the Potency was inconclusive: 10 µM [inhibitor, partial curve].
With CCn1c(-c2cc(-c3ccc(OC(C)C)cc3)nc3ccccc23)n[nH]c1=S the Potency was inconclusive: 3.98 µM [inhibitor, partial curve].
With Cc1ccccc1OCC1Cn2c(nc3c2c(=O)[nH]c(=O)n3C)O1 (stereo not drawn) the Potency was “inactive”.
O=C(O)CCC(=O)N1CCN(c2ccccn2)CC1 was tested, and the Potency was “inactive”.
O=C(Nc1ccccc1)c1ccc2nc(-c3ccco3)c(-c3ccco3)nc2c1 was tested, and the Potency was inconclusive: 31.6 µM [inhibitor, single point].
With CC1CC2C3CC(F)C4=CC(=O)C=C[C@@]4(C)[C@@]3(F)C(O)C[C@]2(C)[C@]1(O)C(=O)COC(=O)C(C)(C)C (stereo partly drawn) the Potency was “inactive”.
For COCCCNC(=O)C1CCN(S(=O)(=O)N(CC(C)C)CC(C)C)CC1, the Potency was inconclusive: 0.199 µM [inhibitor, full curve, poor fit].
With O=C(Nc1nc(-c2cc3ccccc3oc2=O)cs1)c1ccc(Br)o1 the Potency was inconclusive: 20 µM [inhibitor, single point].
In the case of CC1CCc2c(C(=O)NCC3CCCO3)csc2C1 (stereo not drawn), the Potency was “inactive”.
In the case of O=C(O)c1ccc(COc2ccc3ccccc3c2/C=C2/NC(=O)N(c3ccccc3)C2=O)cc1, the Potency was inconclusive: 31.6 µM [inhibitor, single point].
In the case of O=C(O)C1C2C=CC(O2)C1C(=O)Nc1ccccc1C(F)(F)F (stereo not drawn), the Potency was inconclusive: 2.51 µM [inhibitor, full curve, poor fit].
For COCCn1c(=O)c(-c2cccs2)nc2cnc(Oc3cccc(Cl)c3)nc21, the Potency was “inactive”.
For Cc1oc2c(c1C(=O)c1ccc(Cl)cc1)C(=O)C(=O)c1ccccc1-2, the Potency was inconclusive: 6.31 µM [inhibitor, full curve].
In the case of O=C1C(=O)c2c(C(=O)c3ccccc3)coc2-c2ccccc21, the Potency was inconclusive: 12.6 µM [inhibitor, partial curve].
In the case of O=C(O)[C@H]1CCCC[C@@H]1c1c2ccc(=O)c(O)c-2oc2c(O)c(O)ccc12, the Potency was inconclusive: 7.94 µM [inhibitor, single point].
With Cc1ccc(C)o1 the Potency was “inactive”.
In the case of Cc1ccc2nc(/C(C#N)=C\c3ccc(N4CCCCC4)c([N+](=O)[O-])c3)[nH]c2c1, the Potency was inconclusive: 25.1 µM [inhibitor, single point].
COC(=O)CSc1nc2c(c(-c3ccco3)c1C#N)CCCC2 was tested, and the Potency was inconclusive: 25.1 µM [inhibitor, partial curve].
Cc1cc(O)c(C(C)C)cc1N=C1CSC(=O)N1 was tested, and the Potency was inconclusive: 25.1 µM [inhibitor, partial curve].
Cc1ccc(-c2nc3ccccc3s2)cc1NC(=S)NC(=O)c1ccccc1 was tested, and the Potency was inconclusive: 3.16 µM [inhibitor, partial curve].
Cc1[nH]n(-c2cccc(Cl)c2)c(=O)c1-c1ccccc1 was tested, and the Potency was inconclusive: 12.6 µM [inhibitor, partial curve].
In the case of CC(=O)c1c(C)cc(C)c(CSc2nc(C)cc(=O)[nH]2)c1C, the Potency was “inactive”.
Cc1cc(-c2ccccc2)nc2[nH]n(-c3ccccc3)c(=O)c12 was tested, and the Potency was inconclusive: 15.8 µM [inhibitor, partial curve].
Cc1nn(-c2ccccc2)c(Cl)c1C(=O)OC(C)C(=O)Nc1ccc2c(c1)OCO2 (stereo not drawn) was tested, and the Potency was inconclusive: 12.6 µM [inhibitor, partial curve].
In the case of Cc1ccc(CS(=O)(=O)CCC(=O)NCCN2CCCC2)cc1, the Potency was inconclusive: 0.251 µM [inhibitor, full curve, poor fit].
With CN(C)c1ccc(/C=C2/C(=O)Nc3ccccc32)cc1 the Potency was “inactive”.
Clc1ccccc1-c1cc(NCCN2CCOCC2)ncn1 was tested, and the Potency was inconclusive: 25.1 µM [inhibitor, single point].
In the case of CSc1nc(-c2ccco2)nn1C(=O)c1ccccc1, the Potency was inconclusive: 39.8 µM [inhibitor, single point].
With COc1ccc(/C=C2/SC(c3ccc(C)cc3)=NC2=O)cc1OC the Potency was inconclusive: 31.6 µM [inhibitor, single point].
c1cc2ccc3ccc(-n4cnnn4)c4ccc(c1)c2c34 was tested, and the Potency was inconclusive: 25.1 µM [inhibitor, single point].
COc1ccc(N2CCC(CNC(=O)Nc3ccccc3)C2)cc1 (stereo not drawn) was tested, and the Potency was inconclusive: 15.8 µM [inhibitor, partial curve].
With Cc1nn(-c2ccccc2)c(C)c1C(=O)OCC(=O)NC12CC3CC(CC(C3)C1)C2 the Potency was inconclusive: 0.316 µM [inhibitor, full curve, poor fit].
O=C(NCc1nc2ccccc2[nH]1)c1cccs1 was tested, and the Potency was “inactive”.
With CCOc1ccccc1NC(=S)NC(=O)CCCOc1ccc(Cl)cc1Cl the Potency was active: 15.8 µM.
For COc1ccc(OC)c(NC(=O)NC2(C(F)(F)F)Oc3ccccc3O2)c1, the Potency was active: 10 µM.
CCOc1cccc(C2C(C(=O)c3ccc(C)o3)=C(O)C(=O)N2c2nccs2)c1 (stereo not drawn) was tested, and the Potency was “inactive”.
Cc1ccc(-c2cc(C(=O)NCc3ccc4c(c3)OCO4)[nH]n2)c(O)c1C was tested, and the Potency was inconclusive: 39.8 µM [inhibitor, single point].
In the case of O=[N+]([O-])c1ccccc1/C=N/n1c(COc2ccccc2)n[nH]c1=S, the Potency was inconclusive: 15.8 µM [inhibitor, single point].
In the case of COC(=O)c1[nH]c2ccc(C)cc2c1NC(=O)CN1CCN(Cc2ccccc2)CC1, the Potency was “inactive”.
In the case of Cn1cccc1C(=O)N1CCC[C@@]2(CCN(C(c3ccccc3)c3ccccc3)C2)C1, the Potency was “inactive”.
In the case of COc1cc(CNc2ccccc2SC)cc(OC)c1OC, the Potency was inconclusive: 25.1 µM [inhibitor, single point].
With O=C1OCC(CO)(CO)N=C1NNc1ccccc1Cl the Potency was inconclusive: 15.8 µM [inhibitor, partial curve].
For Cc1ccc(NN2C(=O)C=C(c3ccc(Cl)cc3)C2=O)cc1, the Potency was inconclusive: 2 µM [inhibitor, full curve].
With Cc1cccc(CNc2cc(-c3cccnc3)ncn2)c1 the Potency was “inactive”.
In the case of Cc1cccc2sc(NC(=O)CNS(=O)(=O)c3ccc(Br)s3)nc12, the Potency was “inactive”.
In the case of Cc1cccc(-c2nc(=S)c3c(n2Cc2ccco2)CCCC3)c1, the Potency was inconclusive: 20 µM [inhibitor, partial curve].
With COc1cc(/C=C(/C#N)c2nc3ccccc3[nH]2)ccc1OCC(=O)Nc1ccccc1C(C)C the Potency was inconclusive: 20 µM [inhibitor, partial curve].
CC1(C)Cc2c(C#N)c(NC3CCCCC3)nc(-c3ccco3)c2CO1 was tested, and the Potency was inconclusive: 25.1 µM [inhibitor, single point].
For S=C(Nc1ccccc1)Nc1nc2ccccc2n1CCOc1ccccc1, the Potency was inconclusive: 31.6 µM [inhibitor, single point].
COc1ccc(N2CSC3=C(C#N)C(c4ccc(OC)c(OC)c4)CC(=O)N3C2)c(OC)c1 (stereo not drawn) was tested, and the Potency was inconclusive: 10 µM [inhibitor, partial curve].
With COc1cc2c(cc1OC)C(c1ccc(N)cc1)=NNC(=O)C2 the Potency was “inactive”.
In the case of COc1ccc(S(=O)(=O)N2CCN(C)CC2)c2ccccc12, the Potency was “inactive”.
In the case of CC(=O)O[C@H](CC(=O)O)C[N+](C)(C)C, the Potency was “inactive”.
In the case of Cc1nnc(NC(=O)c2c(-c3ccccc3)noc2C)s1, the Potency was inconclusive: 0.126 µM [inhibitor, full curve].
